Measurements published in the supplement of paper PMC3334620.
In all, about 33,000 sequences were measured (“E-score (-0.5 to 0.5)”: median about -0.04, highest 2% from about 0.36 on). This is one part of the list.

biological target: T1, Hmlalpha2 (UniProt P0CY09); experiment: PBM E-score (8-mer binding enrichment) (E-score (-0.5 to 0.5)); higher = stronger / more preferred TF binding; most listed sequences are background and not binding sites; conditions: protein concentration: 200 nM; construct: GST-full length
T1 sequence: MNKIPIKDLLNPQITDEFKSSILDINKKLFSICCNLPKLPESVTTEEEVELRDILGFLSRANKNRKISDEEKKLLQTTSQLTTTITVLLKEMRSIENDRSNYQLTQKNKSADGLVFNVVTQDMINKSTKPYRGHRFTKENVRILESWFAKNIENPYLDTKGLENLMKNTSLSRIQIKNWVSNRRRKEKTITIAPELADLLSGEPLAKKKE
Outline: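 Universal all-10-mer Agilent arrays, fresh or stripped once, were converted to double-stranded form by primer extension. GST-tagged yeast transcription factors from PURExpress in vitro transcription/translation, full-length or DNA-binding domain only, were applied at about 100-200 nM and detected with fluorescent anti-GST. After masliner normalisation, the Universal PBM Analysis Suite scored each ungapped eight-base word together with its reverse complement by E-score.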

Row | Sequence | PBM E-score
1 | CGCACACA | 0.0898
2 | AAGTTTCA | 0.0274
3 | GGCGGCCA | -0.144
4 | ATTTACGC | 0.347
5 | ATATTCGG | -0.0737
6 | TATACTAA | 0.139
7 | ACGTGCCA | 0.103
8 | ATCGTCTG | -0.165
9 | CCCGCGGG | -0.0779
10 | GGACCGTA | -0.145
11 | GCACAGCA | 0.128
12 | AACAACGT | 0.227
13 | GCACAGAA | 0.0198
14 | ACTGGGAC | -0.0158
15 | AGACGATC | -0.29
16 | CTGCGTTC | 0.0961
17 | CATACCAA | 0.141
18 | CCGGAGTA | 0.00533
19 | AACCTCCT | -0.0564
20 | GACCTGGA | -0.163
21 | AAAGAATG | 0.204
22 | CAATCCGA | 0.0675
23 | AGTGGCCC | -0.135
24 | GCCCCACC | -0.336
25 | AGCCTAAC | 0.0259

Row | Sequence | PBM E-score
26 | AGGTCATA | -0.0632
27 | CAGTCGAG | -0.188
28 | GGACTAAC | -0.0725
29 | ACATAAAT | 0.322
30 | CCGAGCTC | -0.0675
31 | AGCAACAT | 0.228
32 | CCAGTGCA | -0.0365
33 | AGAAGATC | -0.212
34 | CCCCGGGA | -0.242
35 | ACTACCCA | -0.0883
36 | AAACCACC | -0.166
37 | CCTGCGGC | -0.341
38 | GGCCCAGA | -0.435
39 | AAGCCGAT | -0.0635
40 | TTACAAAA | 0.266
41 | ATAATCAC | 0.16
42 | CCTCGTCC | -0.266
43 | CCTCTGAA | -0.366
44 | ATATGTTC | 0.198
45 | GGTATGAC | -0.156
46 | CCGTGCTC | 0.00271
47 | TGAGATAA | -0.0523
48 | ATCCAAGA | -0.0469
49 | CTCTGATC | -0.139
50 | CATGCTGG | 0.105

Row | Sequence | PBM E-score
51 | ACTTCGAC | 0.0911
52 | CGCCAAAA | -0.133
53 | ACGACAGA | -0.112
54 | GACGAGCA | -0.127
55 | ACTCCGCG | -0.096
56 | GTGGAATA | 0.173
57 | ACCGGCGC | -0.125
58 | ATGTTGTG | 0.362
59 | AGGAACTG | -0.214
60 | CATTCTTA | -0.0599
61 | ACCGCCAA | 0.0106
62 | TATTCCAA | 0.114
63 | GTGGCGTA | -0.0203
64 | TCGACCAA | -0.0149
65 | GCGTAGAC | 0.116
66 | CTGTTACC | -0.0695
67 | CTACTTGA | 0.107
68 | ATGTGGAC | 0.0672
69 | GCTCTAGA | -0.349
70 | ATGGACGA | 0.00177
71 | GGCAGCCA | -0.281
72 | CCTTCTTA | -0.0419
73 | CAGATCCC | -0.131
74 | ATAAGATC | -0.0162
75 | CACAACCG | 0.21

Row | Sequence | PBM E-score
76 | GGACCGGA | -0.311
77 | AGGACCGG | -0.398
78 | GAATATCA | -0.187
79 | CTGGACGC | -0.0994
80 | CGTGAAGA | -0.0345
81 | ACCAAAAC | 0.0544
82 | ATGTCTCC | 0.104
83 | ACCGGGAG | -0.23
84 | TAACACTA | 0.316
85 | CGCTTCTA | 0.0654
86 | GCACACTA | 0.00254
87 | TGCTAGCA | 0.16
88 | CCCGAAGG | -0.199
89 | AAGTGCGA | -0.185
90 | CCGCCTTC | -0.351
91 | GCGTTTAA | 0.29
92 | CCACTGTC | -0.304
93 | AGTTAAAG | 0.208
94 | ACCATCTG | -0.18
95 | CCTTCCTA | -0.271
96 | CGCGCGAA | 0.0551
97 | CCAGGAAA | -0.0122
98 | AGAACGCG | 0.242
99 | AAGCGAAA | -0.0908
100 | ACATTCCG | 0.0661

Row | Sequence | PBM E-score
101 | GACGGCGA | -0.235
102 | AACGAAGT | 0.0804
103 | AACACATG | 0.363
104 | CTCAGCAA | 0.107
105 | CAGGGCTA | -0.0474
106 | AGTCTATA | 0.028
107 | AATTAAAG | -0.0351
108 | ACCGTGGC | -0.134
109 | AATCAAAG | -0.149
110 | ATGATGAC | -0.101
111 | TCATTACA | 0.439
112 | CTAAACTC | -0.0225
113 | AGATTACT | 0.141
114 | AGAAGACG | -0.0512
115 | GAACAACA | 0.239
116 | CACTCAAA | 0.00366
117 | CGGGCAGA | 0.0372
118 | CAGTGCGG | -0.125
119 | CTTTCTAC | 0.245
120 | ATATCAGC | -0.119
121 | GGGCAATA | -0.237
122 | TGAATGAA | 0.0279
123 | CGACTTTA | 0.134
124 | AAAGACGG | -0.227
125 | AACGTGTA | 0.455

Row | Sequence | PBM E-score
126 | GCGGTGTA | 0.222
127 | CTAGAAAG | -0.0836
128 | AGATACCT | -0.163
129 | AGCTCAGA | -0.0902
130 | CAGGTTCC | -0.138
131 | GGTCTTAC | 0.0512
132 | ACTTGGCC | -0.124
133 | CACCCCGC | -0.109
134 | ATACAGCC | -0.0205
135 | AATATGGA | 0.119
136 | ACGCACCT | 0.0854
137 | CCATACCA | -0.0331
138 | ATGGACCG | -0.189
139 | CTTGTGAC | -0.0579
140 | ATTGAGGC | -0.0568
141 | CATGGTTC | 0.162
142 | CATCAATC | 0.0514
143 | GAGGAACC | -0.191
144 | AGTGTGTG | 0.127
145 | CGCCTTCA | -0.271
146 | AACTGGAA | -0.0939
147 | CCGCTTGC | -0.212
148 | GGAAGGTA | -0.132
149 | GAGTAACC | -0.00081
150 | GAGGGGCA | -0.203

Row | Sequence | PBM E-score
151 | CTGTATGC | 0.00068
152 | GAAAGATC | -0.206
153 | GGGGGGAA | -0.432
154 | AGTGCTAT | -0.151
155 | CAATGAGG | -0.137
156 | CAATAGGC | -0.157
157 | AAGGCGCA | -0.00403
158 | AGAGAAAC | 0.106
159 | CCAATGCA | -0.0576
160 | GCGAGAAA | -0.0173
161 | GTGACTGA | 0.111
162 | AACCGGCC | -0.197
163 | GTAAACGA | 0.283
164 | AGAACCCC | -0.313
165 | TAACGTCA | 0.137
166 | CTGGGGCA | -0.324
167 | GGGATTCA | -0.145
168 | AACTTCAT | 0.0469
169 | TGTATGAA | 0.181
170 | CCTGTTCG | 0.0463
171 | CTCGTATA | 0.114
172 | AAAAGTAA | 0.233
